Laboratory results: PubChem BioAssay AID2675 (National Center for Advancing Translational Sciences (NCATS), 2010)
Hit rate of the full screen: of about 280,000 compounds, about 100 (0.036%) were called active. This list was built around the results that the source calls inconclusive (neither active nor inactive); the mix of calls is not that of the screen. Calls follow the shape of the dose curve; as a rule, active = well fitted inhibition curve with a large enough effect in the signal ratio, with a control signal flat (not every such curve was filed as active); inconclusive = small, poorly fitted or top-dose-only effect, or effect the other way, or a change in a side signal; inactive = no such curve, though single readings can be large or run the other way; the % refers to the signal ratio. Potencies beside an inconclusive call are fits to weak or partial responses and may not hold up. A note “side channel” means that the fit belongs to a control or component signal, not to the main read-out.

Target: Muscleblind-like protein 1 (Homo sapiens) (UniProt Q9NR56)
Test: qHTS Assay for Inhibitors of MBNL1-poly(CUG) RNA binding
Conditions: TR-FRET MBNL1-His/biotin-(CUG)12 binding, 665/545 ratio; activity change, negative = inhibition: at 57.5 µM (top of the series)
Procedure, shortened: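 TR-FRET readout: Ex 340 nm, 665/545 nm emission ratio, normalized to buffer-only (basal) and MBNL1-(CUG)12 controls. Complex of MBNL1-His with Biotin-(CUG)12, compounds 92 nM–58 uM, incubated 60 min at room temperature.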
% is scaled to controls: 0 for no effect and ±100 for the full control effect; potency is read from the fitted curve at half-maximal effect; tags tell the direction and shape of the fitted curve or compound fluorescence and quenching.

UniProt Q9NR56, sequence (Q9NR56 whole entry, looked up): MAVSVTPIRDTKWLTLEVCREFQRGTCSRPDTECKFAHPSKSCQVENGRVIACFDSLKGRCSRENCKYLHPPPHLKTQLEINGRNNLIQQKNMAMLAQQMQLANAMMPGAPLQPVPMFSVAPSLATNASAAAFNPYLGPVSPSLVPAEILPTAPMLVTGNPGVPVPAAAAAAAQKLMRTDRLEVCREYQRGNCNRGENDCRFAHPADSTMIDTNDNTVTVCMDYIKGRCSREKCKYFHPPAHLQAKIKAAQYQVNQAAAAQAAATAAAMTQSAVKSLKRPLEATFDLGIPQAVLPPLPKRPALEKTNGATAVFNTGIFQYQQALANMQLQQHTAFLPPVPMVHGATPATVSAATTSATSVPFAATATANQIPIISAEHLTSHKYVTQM

| Structure (SMILES) | Potency | activity change, negative = inhibition |
| --- | --- | --- |
| COc1ccc(OC)c(/C=N/NC(=O)c2cc[n+](CC(=O)c3ccccc3)cc2)c1 | inconclusive: 20 µM [quencher, side channel, partial curve] |  |
| Cc1nc(NC(=O)c2ccc(Cl)cc2)sc1Cc1ccc2c(c1)OCO2 | inactive |  |
| CC1(C)SC(=S)N(/N=C/c2ccc(O)cc2)C1N(O)C(=O)Nc1ccc([N+](=O)[O-])cc1 (stereo not drawn) | inconclusive: 17.8 µM [quencher, side channel, single point] |  |
| CCCNC(=O)c1cc2ccccc2c(=O)o1 | inconclusive: 12.6 µM [quencher, side channel, partial curve] |  |
| Cc1cc(=O)oc2cc(OC(C)C(=O)NC3CCCC3)ccc12 (stereo not drawn) | inactive |  |
| CC1(C)Cc2nc3sc(C(=O)NCCO)c(N)c3cc2CO1 | inconclusive: 17.8 µM [quencher, side channel, partial curve] |  |
| CCOc1ccccc1NC(=O)CSc1ccc([N+](=O)[O-])cc1 | inconclusive: 20 µM [quencher, side channel, partial curve] |  |
| CC(=O)CSc1ccc(C(=O)O)cn1 | inconclusive: 44.7 µM [quencher, side channel, partial curve, poor fit] |  |
| CC1CCCCC1NC(=O)CCCCn1c(=O)[nH]c2ccsc2c1=O (stereo not drawn) | inactive |  |
| Cn1c(=O)c([N+](=O)[O-])c(NCC2CCCO2)c2ccccc21 (stereo not drawn) | inconclusive: 31.6 µM [quencher, side channel, partial curve] |  |
| CC1(C)CC(=O)C2=C(C1)NC1=C(C(=O)c3ccccc31)C2c1cccnc1 (stereo not drawn) | inconclusive: 14.1 µM [quencher, side channel, partial curve] |  |
| COc1cc(NC(=O)CNC(c2ccccc2)c2ccccc2)cc(OC)c1OC | inactive |  |
| O=C(/C=C/c1ccc2c(c1)OCO2)NCc1ccncc1 | inconclusive: 28.2 µM [quencher, side channel, partial curve] |  |
| CC(=O)CCc1oc2c([N+](=O)[O-])cccc2c1-c1ccc(C)o1 | inconclusive: 22.4 µM [quencher, side channel, partial curve] |  |
| NC(=O)CN1CCN(CCN2C(=O)c3cccc4cccc(c34)C2=O)CC1 | inconclusive: 14.1 µM [quencher, partial curve] |  |
| O=C(Cn1cnc2cc([N+](=O)[O-])ccc2c1=O)NCCc1ccc(F)cc1 | inconclusive: 11.2 µM [quencher, side channel, partial curve] |  |
| O=C(Nc1cccc(NC(=O)c2ccccc2[N+](=O)[O-])c1)c1ccccc1Cl | inconclusive: 28.2 µM [quencher, side channel, partial curve] |  |
| Cc1ccc(C2=NN(S(=O)(=O)c3ccccc3)C(c3ccccc3O)C2)cc1 (stereo not drawn) | inactive |  |
| Cc1nn(CC(=O)N2CCC(C)CC2)c(=O)c2cccn12 | inactive |  |
| O=C1/C(=C\c2cccnc2)CN(Cc2ccccc2)C/C1=C\c1cccnc1 | inconclusive: 0.282 µM [fluorescent, side channel, partial curve] |  |
| O=[N+]([O-])c1ccc(NC(=S)N2CCN(S(=O)(=O)c3ccccc3)CC2)cc1 | inconclusive: 20 µM [quencher, side channel, single point] |  |

| Structure (SMILES) | Potency | activity change, negative = inhibition |
| --- | --- | --- |
| COc1cc([N+](=O)[O-])ccc1NC(=O)NCc1ccco1 | inconclusive: 15.8 µM [quencher, side channel, partial curve] |  |
| CC(C)C(=O)NC(Nc1cccc([N+](=O)[O-])c1)C(Cl)(Cl)Cl (stereo not drawn) | inconclusive: 14.1 µM [quencher, side channel, partial curve] |  |
| O=Cc1ccc2ccc3cccnc3c2n1 | inactive |  |
| Cc1cccc(C(=O)NCCC(=O)Nc2ccc(F)c([N+](=O)[O-])c2)c1 | inconclusive: 28.2 µM [quencher, side channel, partial curve] |  |
| COc1ccc(-c2c(C)c3cc(O)ccc3oc2=O)cc1 | inconclusive: 15.8 µM [quencher, partial curve] |  |
| CC(=O)Nc1ccc(N=Cc2c(O)ccc3ccccc23)cc1 | inconclusive: 20 µM [quencher, side channel, partial curve] |  |
| Cc1ccc(CCc2nnc(SCC(=O)Nc3cccc(Cl)c3)n2-c2ccccc2)o1 | inconclusive: 1.26 µM [fluorescent, side channel, partial curve] |  |
| O=C1CCCC(=O)N1c1ccc(F)cc1 | inactive |  |
| CN(C)CCn1c2ccccc2c2nc3ccc([N+](=O)[O-])cc3cc21 | inconclusive: 2.51 µM [quencher, side channel, full curve] |  |
| O=C(NCCCN1CCN(CCCNC(=O)c2cccc(Cl)c2)CC1)c1cccc(Cl)c1 | inactive |  |
| CC(=O)CSc1nc2cc3c(cc2cc1C#N)OCCO3 | inconclusive: 35.5 µM [activator, partial curve] |  |
| O=C(CCN1C(=O)C2C3CC(C(Br)C3Br)C2C1=O)OCC(=O)c1ccccc1 (stereo not drawn) | inactive |  |
| OCCC1CN(Cc2cccc(C(F)(F)F)c2)CCN1Cc1ccccc1 (stereo not drawn) | inactive |  |
| COc1ccc(/C=C2/N=C3CCCCCN3C2=O)cc1OC | inconclusive: 12.6 µM [quencher, side channel, partial curve, poor fit] |  |
| Cc1cnc([N+](=O)[O-])n1CCOC(=O)NC(=O)c1c(F)cccc1F | inconclusive: 28.2 µM [quencher, side channel, single point] |  |
| CC1CCCC(N2CCN(S(=O)(=O)c3ccccc3)CC2)C1 (stereo not drawn) | inactive |  |
| CC(=O)/C=C/c1ccccc1O | inactive |  |
| CCOC(=O)N1CCN(Cc2nc3ccc([N+](=O)[O-])cc3c(=O)n2-c2ccc(OC)cc2OC)CC1 | inconclusive: 11.2 µM [quencher, side channel, partial curve] |  |
| Cc1cnc(=O)[nH]c1SCc1cccc([N+](=O)[O-])c1 | inconclusive: 2.82 µM [quencher, side channel, full curve] |  |
| CN1CCN(CCCNC(=O)c2ccc(/C=C3\Oc4ccccc4N(Cc4ccc(Cl)cc4)C3=O)cc2)CC1 | inconclusive: 28.2 µM [quencher, side channel, single point] |  |
| Cc1ccc2c(c1)[C@@H]1CN(C)CC[C@@H]1N2S(=O)(=O)c1ccc([N+](=O)[O-])cc1 | inconclusive: 14.1 µM [quencher, partial curve] |  |

| Structure (SMILES) | Potency | activity change, negative = inhibition |
| --- | --- | --- |
| COc1cc(/C=C/C(=O)Nc2nc3ccc(S(=O)(=O)N(C)C)cc3s2)cc(OC)c1OC | inactive |  |
| COC(=O)c1sc(NC(=O)CSc2nnnn2-c2cccc(OC)c2)nc1C | inconclusive: 126 µM [inhibitor, partial curve] |  |
| COC(=O)c1cc(S(=O)(=O)N2CCN(c3cccc(Cl)c3)CC2)c[nH]1 | inactive |  |
| CC(C)(C)C1CCC(C(=O)Nc2nccs2)CC1 (stereo not drawn) | inactive |  |
| CCOC(=O)C1CCCN(c2ccc(NC(=O)c3snc4c(=O)[nH]c(C)nc34)cc2)C1 (stereo not drawn) | inconclusive: 10 µM [quencher, side channel, partial curve] |  |
| CCOc1ccc(NC(=O)CN2C(=O)C3CCCN3C2=O)cc1 (stereo not drawn) | inconclusive: 3.55 µM [quencher, side channel, full curve, poor fit] |  |
| CCOC(=O)C(NC(=O)c1cccc(Cl)c1)(Nc1sc2c(c1C(N)=O)CCC2)C(F)(F)F (stereo not drawn) | inactive |  |
| C=CCn1c2ccccc2c(=O)c2cc(C#CC3(O)CCCCC3)ccc21 | inconclusive: 14.1 µM [quencher, side channel, partial curve] |  |
| Cc1cc(C(=O)N/N=C/c2cc([N+](=O)[O-])ccc2O)c2ccccc2n1 | inactive |  |
| O=[N+]([O-])c1cccc(-c2n[nH]c(=S)n2-c2ccc(Br)cc2)c1 | inconclusive: 25.1 µM [quencher, side channel, single point] |  |
| OC(CNCC1CCCO1)COc1ccc(OCC(O)CNCC2CCCO2)cc1 (stereo not drawn) | inconclusive: 35.5 µM [fluorescent, side channel, partial curve] |  |
| Cc1cccc(NC(=S)NNC(=O)c2ccc3c(c2)OCO3)c1 |  | inactive: 1.78% [at 11.5 µM] |
| COc1ccc(C(=O)/C=C/C(=O)N(CC(=O)NC2CCCCC2)Cc2ccccc2)c(O)c1 | inactive |  |
| Cc1[nH]n(-c2ccccc2)c(=S)c1C=Nc1ccc([N+](=O)[O-])cc1 | inconclusive: 39.8 µM [quencher, side channel, partial curve, poor fit] |  |
| Oc1ccccc1N=Nc1ccccc1O | inactive |  |
| Cc1cc2ccccn2c1C(=S)NC(=O)c1ccccc1 | inconclusive: 8.91 µM [quencher, side channel, full curve] |  |
| COc1ccc(N(CN2C(=O)c3ccccc3C2=O)C(=O)C(C)C)cc1 | inconclusive: 22.4 µM [quencher, side channel, partial curve] |  |
| O=[N+]([O-])c1cccc(S(=O)(=O)c2cccc([N+](=O)[O-])c2)c1 | inconclusive: 2.51 µM [quencher, side channel, partial curve, poor fit] |  |
| O=C(COC(=O)c1cnccn1)c1ccc([N+](=O)[O-])cc1 | inconclusive: 8.91 µM [quencher, side channel, partial curve] |  |
| C[C@@H]1CN(c2nc3nonc3nc2N2CCSCC2)C[C@H](C)O1 | inconclusive: 39.8 µM [quencher, side channel, single point] |  |
| O=C(c1ccco1)c1cc2c(ccc3ccccc32)oc1=O | inconclusive: 3.55 µM [quencher, side channel, full curve, poor fit] |  |
